The values that follow come from patent US20260137707A1, “METHODS OF MODULATING ATXN2 EXPRESSION” (University of Utah Research Foundation, priority 2022, published 2026).

Where a name gives a salt, the structure may show the parent alone. Read-outs that look alike come from different tables or passages of the source.

For the data set, the system named is H2 cells and S1 cells.
Setting [1] is: average MTT of H2 and S1 cells, 1 μm.
[2] abbreviates: average MTT of H2 and S1 cells, 10 μm.

Consider `CCCCCCCCCOc1ccc2[nH]cc(CCN)c2c1` [5-Nonyloxytryptamine], for which, under setting [1], the “MTT at 1 μm” value came to 114.1. Further, the “MTT at 10 μm” value under setting [2] came out at 23.68.

In the case of `CC[C@H]1CN2CCc3cc(OC)c(OC)cc3[C@@H]2C[C@@H]1C[C@H]1NCCc2cc(O)c(OC)cc21.Cl.Cl.O.O.O.O.O.O.O` [Cephaeline dihydrochloride heptahydrate], the “MTT at 1 μm” value under setting [1] was found to be 59.14. In addition, the “MTT at 10 μm” value under setting [2] came out at 62.1.

With `C[C@]12CC[C@H](O)C[C@H]1CC[C@@H]1[C@@H]2CC[C@]2(C)[C@@H](C3=CC(=O)OC3)CC[C@]12O` [Digitoxigenin], the “MTT at 1 μm” value under setting [1] is given as 81.65. Under setting [2], the “MTT at 10 μm” value came to 74.85.

As to `C[C@]12CC[C@H](O)C[C@H]1CC[C@@H]1[C@@H]2C[C@@H](O)[C@]2(C)[C@@H](C3=CC(=O)OC3)CC[C@]12O` [Digoxigenin], the “MTT at 1 μm” value under setting [1] is recorded as 60.4. In addition, the “MTT at 10 μm” value under setting [2] was determined as 31.57.

With `CO[C@H]1[C@@H](O)[C@@H](C)O[C@@H](O[C@H]2CC[C@]3(C)[C@H]4CC[C@]5(C)[C@@H](C6=CC(=O)OC6)CC[C@]5(O)[C@@H]4CC[C@]3(O)C2)[C@@H]1O` [EMICYMARIN], the “MTT at 1 μm” value under setting [1] is reported as 111.9. Further, the “MTT at 10 μm” value under setting [2] was determined as 53.42.

For `CC[C@H]1CN2CCc3cc(OC)c(OC)cc3[C@@H]2C[C@@H]1C[C@H]1NCCc2cc(OC)c(OC)cc21` [Emetine dihydrochloride], under setting [1], the “MTT at 1 μm” value amounted to 59.72. Further, under setting [2], the “MTT at 10 μm” value was determined as 58.08.

With `C[C@H]1O[C@@H](O[C@H]2CC[C@]3(C=O)[C@H]4CC[C@]5(C)[C@@H](C6=CC(=O)OC6)CC[C@]5(O)[C@@H]4CC[C@]3(O)C2)C[C@H](O)[C@@H]1O` [Helveticoside], the “MTT at 1 μm” value under setting [1] was found to be 98.96. Under setting [2], the “MTT at 10 μm” value came to 37.06.

Take `CNC1CC(c2ccc(Cl)c(Cl)c2)c2ccccc21` (stereo not shown) [Indatraline]: the “MTT at 1 μm” value under setting [1] came to 116.5. Besides, under setting [2], the “MTT at 10 μm” value was 13.49.

Regarding `CC(=O)O[C@H]1C[C@H](O[C@H]2[C@@H](O)C[C@H](O[C@H]3[C@@H](O)C[C@H](O[C@H]4CC[C@@]5(C)[C@H](CC[C@@H]6[C@@H]5C[C@@H](O)[C@]5(C)[C@@H](C7=CC(=O)OC7)CC[C@]65O)C4)O[C@@H]3C)O[C@@H]2C)O[C@H](C)[C@H]1O[C@@H]1O[C@H](CO)[C@@H](O)[C@H](O)[C@H]1O` [LANATOSIDE C], the “MTT at 1 μm” value under setting [1] came to 38.04; the “MTT at 1 μm” value (average MTT of H2 and S1 cells, 1 μm, listed as Lanatoside C) stood at 35.01. Besides, the “MTT at 10 μm” value runs as follows: under setting [2], 35.97; (average MTT of H2 and S1 cells, 10 μm, listed as Lanatoside C) 35.63.

Take `C[C@@H]1O[C@@H](O[C@H]2C[C@@H](O)[C@]3(CO)[C@H]4[C@H](O)C[C@]5(C)[C@@H](C6=CC(=O)OC6)CC[C@]5(O)[C@@H]4CC[C@]3(O)C2)[C@H](O)[C@H](O)[C@H]1O` [OUABAIN]: the “MTT at 1 μm” value under setting [1] worked out at 51.75. Moreover, under setting [2], the “MTT at 10 μm” value worked out at 60.4.

Turning to `CO[C@H]1C[C@H](O[C@H]2CC[C@]3(C)[C@H]4CC[C@]5(C)[C@@H](C6=CC(=O)OC6)CC[C@]5(O)[C@@H]4CC[C@]3(O)C2)O[C@H](C)[C@H]1O` [PERIPLOCYMARIN], under setting [1], the “MTT at 1 μm” value came out at 58.7. Under setting [2], the “MTT at 10 μm” value is recorded as 37.1.

Regarding `C[C@@H]1O[C@@H](O[C@@H]2C=C3CC[C@@H]4[C@H](CC[C@]5(C)[C@@H](c6ccc(=O)oc6)CC[C@]45O)[C@@]3(C)CC2)[C@H](O)[C@H](O)[C@H]1O` [Proscillaridin A], under setting [1], the “MTT at 1 μm” value came to 47.75. Moreover, the “MTT at 10 μm” value under setting [2] was 44.97.

Consider `C[C@]12CC[C@H](O)C[C@H]1CC[C@@H]1[C@@H]2[C@H](O)C[C@]2(C)[C@@H](C3=CC(=O)OC3)CC[C@]12O` [SARMENTOGENIN], for which, under setting [1], the “MTT at 1 μm” value turned out to be 45.81. The “MTT at 10 μm” value under setting [2] came to 41.24.

Turning to `C[C@]12CC[C@H]3[C@@H](CC[C@]4(O)C[C@@H](O)CC[C@]34C=O)[C@@]1(O)CC[C@@H]2C1=CC(=O)OC1` [STROPHANTHIDIN], the “MTT at 1 μm” value (1 µM) is 40.11. The “MTT at 10 μm” value (10 µM) is 45.52.

`COc1cccc(C2(O)CCCCC2CN(C)C)c1` (stereo not shown) [Tramadol]: the “MTT at 1 μm” value under setting [1] turned out to be 128.2. Further, under setting [2], the “MTT at 10 μm” value came to 112.8.

On to STROPH[…] LACTONE ACETATE, for which, under setting [1], the “MTT at 1 μm” value is 43.59. In addition, the “MTT at 10 μm” value under setting [2] came out at 36.63.
